# From the supplement of paper PMC8728848
# Some of the results follow.
# Legend:
# Assay in all cases: glycan array binding signal (z-score within array); higher = stronger binding
# Conditions in all cases: glycan notation: IUPAC condensed, linker removed
# [1] = target: Neu5Ac(a2-6)Gal(b1-4)GlcNAc(b1-2)[Neu5Ac(a2-6)Gal(b1-4)GlcNAc(b1-6)]Man(a1-6)[Neu5Ac(a2-6)Gal(b1-4)GlcNAc(b1-2)Man(a1-3)][GlcNAc(b1-4)]Man(b1-4)GlcNAc(b1-4)GlcNAc
# Procedure, shortened: (§1)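 Arrays were curated from the Consortium for Functional Glycomics database, 3228 in total, and kept only where the protein sequence was available. Binding is expressed as a within-array Z-score. This score was averaged across arrays of the same protein sequence at different concentrations or buffers and across linkers, and negative values can be read as non-binding.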
# [2] = target: Neu5Ac(a2-6)Gal(b1-4)GlcNAc(b1-3)Gal(b1-3)GlcNAc
# Procedure, shortened: as §1
# [3] = target: Neu5Ac(a2-6)Gal(b1-4)GlcNAc(b1-3)Gal(b1-4)GlcNAc
# Procedure, shortened: as §1
# [4] = target: Neu5Ac(a2-6)Gal(b1-4)GlcNAc(b1-3)Gal(b1-4)GlcNAc(b1-2)Man(a1-3)[Neu5Ac(a2-6)Gal(b1-4)GlcNAc(b1-3)Gal(b1-4)GlcNAc(b1-2)Man(a1-6)]GalNAc
# Procedure, shortened: as §1
# [5] = target: Neu5Ac(a2-6)Gal(b1-4)GlcNAc(b1-3)Gal(b1-4)GlcNAc(b1-3)Gal(b1-4)GlcNAc
# Procedure, shortened: as §1
# [6] = target: Neu5Ac(a2-6)Gal(b1-4)GlcNAc(b1-3)Gal(b1-4)GlcNAc(b1-3)Gal(b1-4)GlcNAc(b1-2)Man(a1-3)[Neu5Ac(a2-6)Gal(b1-4)GlcNAc(b1-3)Gal(b1-4)GlcNAc(b1-3)Gal(b1-4)GlcNAc(b1-2)Man(a1-6)]GalNAc
# Procedure, shortened: as §1
# [7] = target: Neu5Ac(a2-6)Gal(b1-4)GlcNAc(b1-3)Gal(b1-4)GlcNAc(b1-3)GalNAc
# Procedure, shortened: as §1
# [8] = target: Neu5Ac(a2-6)Gal(b1-4)GlcNAc(b1-3)Gal(b1-4)GlcNAc(b1-3)[Neu5Ac(a2-6)Gal(b1-4)GlcNAc(b1-3)Gal(b1-4)GlcNAc(b1-6)]GalNAc
# Procedure, shortened: as §1
# [9] = target: Neu5Ac(a2-6)Gal(b1-4)GlcNAc(b1-3)Gal(b1-4)GlcNAc(b1-6)[Gal(b1-3)]GalNAc
# Procedure, shortened: as §1
# [10] = target: Neu5Ac(a2-6)Gal(b1-4)GlcNAc(b1-3)Gal(b1-4)[Fuc(a1-3)]GlcNAc(b1-3)Gal(b1-4)[Fuc(a1-3)]GlcNAc
# Procedure, shortened: as §1
# [11] = target: Neu5Ac(a2-6)Gal(b1-4)GlcNAc(b1-3)GalNAc
# Procedure, shortened: as §1
# [12] = target: Neu5Ac(a2-6)Gal(b1-4)GlcNAc(b1-3)[Neu5Ac(a2-6)Gal(b1-4)GlcNAc(b1-6)]GalNAc
# Procedure, shortened: as §1
# [13] = target: Neu5Ac(a2-6)Gal(b1-4)GlcNAc(b1-6)GalNAc
# Procedure, shortened: as §1
# [14] = target: Neu5Ac(a2-6)Gal(b1-4)GlcNAc(b1-6)[Gal(b1-3)GlcNAc(b1-3)]Gal(b1-4)Glc
# Procedure, shortened: as §1
# [15] = target: Neu5Ac(a2-6)Gal(b1-4)GlcNAc(b1-6)[Gal(b1-3)]GalNAc
# Procedure, shortened: as §1
# [16] = target: Neu5Ac(a2-6)Gal(b1-4)GlcNAc6S
# Procedure, shortened: as §1
# Neu5Ac(a2-6)GalNAc = target: Neu5Ac(a2-6)GalNAc
# Procedure, shortened: as §1
# [17] = target: Neu5Ac(a2-6)GalNAc(b1-4)GlcNAc
# Procedure, shortened: as §1
# [18] = target: Neu5Ac(a2-6)GalNAc(b1-4)GlcNAc6S
# Procedure, shortened: as §1
# [19] = target: Neu5Ac(a2-6)GlcNAc(b1-4)GlcNAc
# Procedure, shortened: as §1
# [20] = target: Neu5Ac(a2-6)GlcNAc(b1-4)GlcNAc(b1-4)GlcNAc
# Procedure, shortened: as §1
# Neu5Ac(a2-8)Neu5Ac = target: Neu5Ac(a2-8)Neu5Ac
# Procedure, shortened: as §1
# [21] = target: Neu5Ac(a2-8)Neu5Ac(a2-3)Gal(b1-3)GalNAc(b1-4)[Neu5Ac(a2-3)]Gal(b1-4)Glc
# Procedure, shortened: as §1
# [22] = target: Neu5Ac(a2-8)Neu5Ac(a2-3)Gal(b1-3)GalNAc(b1-4)[Neu5Ac(a2-8)Neu5Ac(a2-3)]Gal(b1-4)Glc
# Procedure, shortened: as §1
# [23] = target: Neu5Ac(a2-8)Neu5Ac(a2-3)Gal(b1-4)Glc
# Procedure, shortened: as §1
# [24] = target: Neu5Ac(a2-8)Neu5Ac(a2-3)Gal(b1-4)GlcNAc
# Procedure, shortened: as §1
binder,measurement,setting,value
GSL-I (Griffonia simplicifolia) (protein) FNLPNFWSDVKDNIIFQGDANTTAGTLQLCKTNQYGNPLQYRAGRALYSDPVQLWDNKTGSVASFYTEFTFFLKITGDGPADGLAFFLAPPDSDVKDAGAYLGLFNKSTATQPSKNQVVAVEFDTWKNTDFPEPSYRHIGINVNSIVSVATKRWEDSDIFSGKIATARISYDGSAKILTVVLSYPDGADYILSHSVDLSKNLPNPIRVGISASTGANQFLTVYVLSWRFSSALQSTSVNAAMGPEIIRTVV,glycan array binding signal (z-score),[1],-0.251
same,glycan array binding signal (z-score),[2],-0.222
same,glycan array binding signal (z-score),[3],-0.179
same,glycan array binding signal (z-score),[4],-0.064
same,glycan array binding signal (z-score),[5],-0.169
same,glycan array binding signal (z-score),[6],0.729
same,glycan array binding signal (z-score),[7],-0.339
same,glycan array binding signal (z-score),[8],0.97
same,glycan array binding signal (z-score),[9],-0.048
same,glycan array binding signal (z-score),[10],-0.218
same,glycan array binding signal (z-score),[11],-0.128
same,glycan array binding signal (z-score),[12],-0.198
same,glycan array binding signal (z-score),[13],-0.215
same,glycan array binding signal (z-score),[14],-0.211
same,glycan array binding signal (z-score),[15],-0.233
same,glycan array binding signal (z-score),[16],-0.208
same,glycan array binding signal (z-score),Neu5Ac(a2-6)GalNAc,-0.113
same,glycan array binding signal (z-score),[17],-0.169
same,glycan array binding signal (z-score),[18],-0.271
same,glycan array binding signal (z-score),[19],-0.054
same,glycan array binding signal (z-score),[20],-0.225
same,glycan array binding signal (z-score),Neu5Ac(a2-8)Neu5Ac,-0.184
same,glycan array binding signal (z-score),[21],-0.326
same,glycan array binding signal (z-score),[22],-0.178
same,glycan array binding signal (z-score),[23],-0.242
same,glycan array binding signal (z-score),[24],-0.263
